Laboratory results published in the RNAGym collection of RNA variant scans (doi:10.7554/elife.90254).
The source gives no read counts; variants with many changes may rest on few reads.

B1: LINE1-mini (parent)
chain: GGCAGAGCUCAACACAGCGUGGCAAAGUGGCUGUGGCUAGACUGCC

Variants of: B1
Assay: self-cleavage, relative activity (ratio to wild type); higher = more cleavage; in vitro, sequencing; the parent is a self-cleaving ribozyme
In the case of GGCAGAGCUCAACACAGGGCGGCUAAGUGGCUGUGGCUAGACUGCC [C18G U20C A24U], the self-cleavage is reported as 0.01. Variant GGCAGAGCACAACACAGCGUGGCAAAGUGGAUGUGGCUAGACUCCC [U9A C31A G44C] has a self-cleavage of 0.12. For GGCAGAGCUCAACACAGCGUGGCAACGUGCCUAUGGCAAGACUUCC [A26C G30C G33A U38A G44U], the self-cleavage was 0.1. For GGCAGAGGUCAACACAGCGUGGCAGAGUGGCUGUGGAUAGACUCCC [C8G A25G C37A G44C], the self-cleavage was 0.01. With GGCAGACCUCAACACAGAGUGGCAAAGUGGUUGUGGCUAGACUGCC [G7C C18A C31U] the self-cleavage was 0.01. In the case of CGCAGAGCUCAAGACAGCGUGGCAAAGUGGCUGUGGCUAGACUGCG [G1C C13G C46G], the self-cleavage is reported as 0.05. GGCAGAGGACAACACAGCAUGGCAAAGUGGCUGUGGCUAGACUGCC [C8G U9A G19A] gave a self-cleavage of 0.06. Variant GGCACAGCUCAACACAUCGUCGCAAAGUGGCUGUGGCUAUACUGCC [G5C G17U G21C G40U] has a self-cleavage of 0.03. In the case of GGCAGAGCUCAGCAUAGCGUGGCAAAGUCCCUGUGGCUAGACUGCC [A12G C15U G29C G30C], the self-cleavage is reported as 0.01. Work on GGCAGAGCUCAACCCAGCGAGGCAAAAUGGCUGUGGCUAGACUGCC [A14C U20A G27A] yielded a self-cleavage of 0.18. With GGCAGACCUCAACACAGCGUGGCAAAGUGGCUGAGACUAGACUGCC [G7C U34A G36A] the self-cleavage was 0.11. Work on GGCGGAGCUCAAUACAGUGUUGCAAAGCGGCUGUGGCUAGACUGAC [A4G C13U C18U G21U U28C C45A] yielded a self-cleavage of 0.39. GGCGGAGCUCAACACAGCGUGGCAUAGUGGCUGUGGCUAGACUGCU [A4G A25U C46U] showed a self-cleavage of 1.52. In the case of UGCAUAGCUCAACAAAGCGUGGCAAAGUGGCUGUGGCUAGACUGCC [G1U G5U C15A], the self-cleavage is reported as 0. Work on GGCAGAGCUCAACACCACGUAGCAAAGUGGCUGUGGCUAGACUGCU [A16C G17A G21A C46U] yielded a self-cleavage of 0.11. GGCAGAGCUCAACACAGCGUGUCAAAGAGGCUGUAGCUAGACUGCC [G22U U28A G35A] showed a self-cleavage of 0.17. For GGAAGAGCCCAGCACAGCGUGGCAAAGUGGCUGUGGCUAGACUGCC [C3A U9C A12G], the self-cleavage was 0.06. Work on GGCAUAGCUCAACACCGCGUGGCAAAGUGGCGGUGACUAGAAUGCC [G5U A16C U32G G36A C42A] yielded a self-cleavage of 0.07. Variant GGCAGAGCUCAACAAAGCUUGGCAAAUUUGCUGUGGCUAGACUGCC [C15A G19U G27U G29U] has a self-cleavage of 0.03. Variant GGCAGAGCUCAACACAGCGUUGCAAAGUGGCUGUGACUAGACUGCA [G21U G36A C46A] has a self-cleavage of 0.52. With GGCAGAGCUCAGCACAGCGUGGCAAAGGGGCUGUGGCUAGACUGGC [A12G U28G C45G] the self-cleavage was 0.02. In the case of GGCAGAGGUCCCCACAGAGUGGCAAAGUGGCUGUGGCUACUCUACC [C8G A11C A12C C18A G40C A41U G44A], the self-cleavage is reported as 0.01. Variant GGCAGAGCCCAACACAGCGUGGCAAAGGGGCUGUGGCUAGACUGCA [U9C U28G C46A] has a self-cleavage of 0.02. Work on GGCAGAGCUCAACACAGCGUGGCAUAGUGGCUGUGGCUAGAGUGCA [A25U C42G C46A] yielded a self-cleavage of 0. GGCAAAGCUCAACACAGCGUGGCAAAGUGGCUGUGGCUAGACUGGU [G5A C45G C46U] showed a self-cleavage of 0.22. Work on GGCAGAGUUCAACACAGCGUGGCAAAGUGGCUCUGGCUUGACUGCC [C8U G33C A39U] yielded a self-cleavage of 0.15. GGCAGAGAUCAACACAGCGCGGCUAAGUGGCUGUGGCUAGACUGCC [C8A U20C A24U] gave a self-cleavage of 0.12. Work on GGCAGUGCUCAACACAGCGUGACAAAGUGGCUAUGGCCAGACUGCA [A6U G22A G33A U38C C46A] yielded a self-cleavage of 0.32. In the case of GGCAGAGCUCAACACGGCGUGACAACGUAGCUGUGGCUAGUCUGCC [A16G G22A A26C G29A A41U], the self-cleavage is reported as 0.21. GGCACAGCGCAACACAGCGUGGCAAAGUGGCUCUGGCUAGACUGCC [G5C U9G G33C] showed a self-cleavage of 0.02. For GGCAGAGCUCAACACAUCGUGGCAAAGUGGCUGUUGGUAGACUGCC [G17U G35U C37G], the self-cleavage was 0.02. In the case of GGCCGAGCUCAACACAGCGUGGCAAAGUGGCUGGGGCUAGAUUGCC [A4C U34G C42U], the self-cleavage is reported as 0. With GUCAAAGCUCAACACAGCGUGGCAAAGUGGCUGUGGCUAGACUGUC [G2U G5A C45U] the self-cleavage was 0.03. GGUAGAGCUCAACAAAGCGGGGCAAAGUUGCUGUGGCUAGACCGCC [C3U C15A U20G G29U U43C] showed a self-cleavage of 0. Work on GGCAGAGCUCAAUACAGCGUGGCAAAGUGGCUGUGGGUAUACUGCC [C13U C37G G40U] yielded a self-cleavage of 0.05. For GGUAGAGCUCAAAACAGGGUGUCAAAGUGGCUGUGGCUAGACUUCC [C3U C13A C18G G22U G44U], the self-cleavage was 0.05. For GGCAGACUUCAACACAGCGUGGCAAAGUGGCUGUGGCUAGACCGCC [G7C C8U U43C], the self-cleavage was 0.15. Variant UGCAGAGUUCAAAACAGCGUGGAAAAGUGGCUGUGGCUAGACUGCC [G1U C8U C13A C23A] has a self-cleavage of 0.05. In the case of GGCAUAGGUCAACACAGCGUGGCAAAGUGGCUGUGGCUAAACUGCC [G5U C8G G40A], the self-cleavage is reported as 0.47. GGCAGAGCUAAACACAGCGUGGCAAAGUGGCUAUGGCUAGACUGUC [C10A G33A C45U] gave a self-cleavage of 0.03. Variant GGUAGAGCUCAACACAGGUUGGCAAAGUGCCUGUGGCUAUACUGCC [C3U C18G G19U G30C G40U] has a self-cleavage of 0.03. GGCAGGGCUCCACACAGCGUGUCAAAGUGGCUGUGGCUAGACUGCC [A6G A11C G22U] showed a self-cleavage of 0.01. With GGCAGAGCUCAACAAAGCGUGGCAAUGUGGCUGUGGCAAGACUGCC [C15A A26U U38A] the self-cleavage was 0.07. Variant GGCCGAGCUCGAAACAGCGUGGCAAAGUGGCUGUGGCUAGACUGCC [A4C A11G C13A] has a self-cleavage of 0.03. For GGCAAAGCUCAACUCAACGUGGGAAAGUGGCUGUGGCUCGACUCCC [G5A A14U G17A C23G A39C G44C], the self-cleavage was 0.04. GGCAGCGCUCAACACACCGUGGCAAAGUGGCUGUGGCUAGACAGCC [A6C G17C U43A] gave a self-cleavage of 0.14. GGCAGAUUUCAACACAGCGUGGCAAAGAGGCUGUGGCUAGACUGCC [G7U C8U U28A] showed a self-cleavage of 0.16. GGCGGAGCUCAACACAGCGUCGCAAAGUGGCUGUGGAUAGACUGCC [A4G G21C C37A] gave a self-cleavage of 0.04. In the case of GGCAGAGCUCAACACAGCGUGGCAAAGAGGCUGUGGCUAGACAACC [U28A U43A G44A], the self-cleavage is reported as 0.08. Variant UGCAGAGCUAAACACAGCGUGGCAAAGUGGCUUUGGCUAGACUGCC [G1U C10A G33U] has a self-cleavage of 0.02. In the case of GGCAGAGCUCAACACAGCGUGGCAACGUGGCGGUGUCUAGACUGCC [A26C U32G G36U], the self-cleavage is reported as 0.04. For GGCAGAGCACAACACAGCGAGGCAAAGUGGCUGUGGCUAGAUUGCC [U9A U20A C42U], the self-cleavage was 0.59. GGCAGAGCUCAAUACAGCGUGGCAAAUUGGCUGUGGCUAGAAUGCC [C13U G27U C42A] gave a self-cleavage of 0.07. GGUAGAGCUCCCCACAGCGUGGCAAAGUGGCUGUGGCUAGACUGCC [C3U A11C A12C] gave a self-cleavage of 0.01. UGCAGAGCCCAACACAGUGUGGCAAAGUGGCUGUGGCUAGACUCCC [G1U U9C C18U G44C] gave a self-cleavage of 0. GGCGGAGCUCAUCAAAGCGUGGCAAAGUGGCUGUGGCUAGACUGCC [A4G A12U C15A] gave a self-cleavage of 0.1.
